According to paper PMC4336329 (PLoS ONE, 2015):
Among all 310,000 compounds or so, about 2,200 (0.71%) showed an effect of 50% or more. The effect is printed as a negative number. This is one part of the list.

target: human ether-à-go-go-related gene (hERG) potassium channel (human, UniProt Q12809); assay: primary screen, population patch clamp on CHO cells stably expressing hERG
Sequence (Q12809 whole entry, looked up): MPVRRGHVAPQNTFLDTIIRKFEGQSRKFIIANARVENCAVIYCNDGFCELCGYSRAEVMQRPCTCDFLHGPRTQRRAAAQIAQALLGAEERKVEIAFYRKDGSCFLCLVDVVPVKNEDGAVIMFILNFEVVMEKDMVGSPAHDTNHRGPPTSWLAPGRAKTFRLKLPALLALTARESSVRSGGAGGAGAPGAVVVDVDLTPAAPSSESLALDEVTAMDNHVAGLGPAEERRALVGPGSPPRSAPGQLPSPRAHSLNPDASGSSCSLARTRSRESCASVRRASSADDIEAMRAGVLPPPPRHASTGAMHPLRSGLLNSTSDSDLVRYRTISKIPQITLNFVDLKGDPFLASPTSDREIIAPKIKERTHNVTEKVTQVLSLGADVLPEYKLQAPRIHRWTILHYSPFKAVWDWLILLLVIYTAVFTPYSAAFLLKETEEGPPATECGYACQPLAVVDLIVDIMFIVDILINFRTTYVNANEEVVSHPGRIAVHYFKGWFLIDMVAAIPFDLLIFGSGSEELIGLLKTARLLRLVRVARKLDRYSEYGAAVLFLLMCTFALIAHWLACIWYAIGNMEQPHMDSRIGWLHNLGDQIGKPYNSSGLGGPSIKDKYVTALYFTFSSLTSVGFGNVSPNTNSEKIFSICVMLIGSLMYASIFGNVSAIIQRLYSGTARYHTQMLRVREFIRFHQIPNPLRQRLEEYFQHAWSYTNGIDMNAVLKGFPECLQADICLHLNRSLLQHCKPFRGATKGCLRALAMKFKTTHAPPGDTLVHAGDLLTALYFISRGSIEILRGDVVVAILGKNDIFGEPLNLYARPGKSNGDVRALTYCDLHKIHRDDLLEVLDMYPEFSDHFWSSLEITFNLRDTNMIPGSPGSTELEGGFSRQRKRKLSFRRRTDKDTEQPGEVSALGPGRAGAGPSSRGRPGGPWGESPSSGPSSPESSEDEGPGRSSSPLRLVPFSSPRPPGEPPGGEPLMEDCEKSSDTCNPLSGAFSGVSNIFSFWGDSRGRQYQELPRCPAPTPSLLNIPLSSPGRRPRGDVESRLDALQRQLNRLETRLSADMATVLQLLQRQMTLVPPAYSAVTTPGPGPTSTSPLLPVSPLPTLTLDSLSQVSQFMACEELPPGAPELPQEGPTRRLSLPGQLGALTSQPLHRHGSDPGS

Structure (SMILES) | hERG current change (%, negative = inhibition) at 1uM
O=C(CSc1nnc(-c2ccccc2F)n1C1CC1)NCc1ccco1 | 2.1%
O=C(CSC(=S)N1CCCC1)c1cc(Br)cc(Br)c1O | 13.2%
CC(OC(=O)CCNS(=O)(=O)c1cccs1)C(=O)Nc1ccc(S(N)(=O)=O)cc1 (stereo not drawn) | 5.31%
CCN(CC)C(=O)c1[nH]cnc1C(=O)N[C@@H](C)c1ccccc1 | 13.4%
CCN(CC1CCCO1)C(=O)C1CCN(C2CCN(Cc3ccccc3C)CC2)CC1 (stereo not drawn) | -5.16%
O=C(Nc1ccccc1)C1CC2CCC1C2 (stereo not drawn) | 13.4%
Cl.N=C1c2ccccc2CN1CC(=O)c1ccccc1 | 6.38%
CS(=O)(=O)N1CCC(C(=O)NCc2ccncc2)CC1 | 9.36%
CCN1CCN(S(=O)(=O)c2c[nH]c(C(=O)OC)c2)CC1 | 8.18%
Cc1sc2ncn(CC(=O)N3CCC(C(N)=O)CC3)c(=O)c2c1S(=O)(=O)N1CCOCC1 | 10.1%
COc1ccc(/C=C/C(=O)OC(C)CN2CCCCC2)cc1.Cl (stereo not drawn) | 4.34%
CC(C)C(=O)Nc1ccc(-c2ccc3nncn3n2)cc1 | 11.6%
O=[N+]([O-])c1cccc2c3c([nH]c12)CCCC3 | 17.5%
CN(C)C(CNC(=O)CSc1nc2sc3c(c2c(=O)n1C)CCC3)c1ccccc1 (stereo not drawn) | 9.04%
Cc1ccc(C)c(NC(=O)CCN2CCCC(C)C2)c1 (stereo not drawn) | 7.54%
CC12c3ccccc3C(c3ccccc31)C1C(=O)N(c3ccncc3)C(=O)C12 (stereo not drawn) | 15%
CC(C)(C)CN1CCC(Oc2cccc(C(=O)NCCCOc3cccnc3)c2)CC1 | 5.15%
O=C(CN1CCCCCC1)Nc1ccc(Cl)cn1 | 6.51%
CC(C)NC(=O)c1sc(=S)n2c1[nH]c(=O)c1ccc(C(=O)NCCc3ccc(Cl)cc3)cc12 | 3.15%

Structure (SMILES) | hERG current change (%, negative = inhibition) at 1uM
CCOc1cc(CNc2ccc(O)cc2)ccc1OCc1ccc(Cl)cc1Cl | -0.965%
C/C=C/C(=O)N1c2ccccc2C(C)=CC1(C)C | 11%
COc1ccc(-c2nnc3sc(-c4ccco4)nn23)cc1OC | 12.9%
CC1CCCCC12NC(=O)N(CC(=O)OCc1cccc(F)c1)C2=O (stereo not drawn) | 5.95%
COc1ccc(N2C(=O)NC3CC2(C)Oc2ccccc23)cc1 (stereo not drawn) | 13.6%
O=C(NCC1CCCO1)C1C2C=CC3(CN(Cc4cccs4)C(=O)C13)O2 (stereo not drawn) | -5.42%
Cc1cc(OCC(=O)Nc2ccc(CN3CCCCC3)cc2)ccc1Cl | -22%
COc1cc(C(=O)Nc2ccc(O)cc2)ccc1OC(C)=O | -3.53%
CC(C)COC(=O)c1ccc2c(c1O)C(=O)c1ccccc1C2=O | 6.47%
CS(=O)(=O)Nc1ccc(C(=O)NCCSCc2ccccc2)cc1 | -18.4%
CCN(CC)CCNc1ccc2nnc(CCNS(=O)(=O)c3ccc(C)cc3)n2n1 | 13.9%
Cc1cc(NC(=O)CC2(CC(=O)O)CCCC2)n(C)n1 | 15.8%
Cc1ccc(-c2ccc(=O)n(CC(=O)NCCN3CCCCC3C)n2)cc1 (stereo not drawn) | 4.17%
CCOc1cc(C2C3=C(CCCC3=O)NC3=C2C(=O)CCC3)cc(Cl)c1O | -5.15%
CN1CCN(CC(O)COc2ccc(S(=O)(=O)N3CCOCC3)cc2)CC1 (stereo not drawn) | 13.8%
CCOC(=O)CCNC(=O)Nc1ccc2nc(C)n(Cc3cccc(Cl)c3)c(=O)c2c1 | 3.88%
CCC(C)c1ccccc1NC(=O)C(C)Sc1n[nH]c(N)n1 (stereo not drawn) | 11.9%
COc1ccc(NC(=O)C2CCCO2)cc1OC (stereo not drawn) | 2.16%
O=C(c1ccccc1)c1ccc(OC(=O)N2CCCC2)cc1 | -0.153%

Structure (SMILES) | hERG current change (%, negative = inhibition) at 1uM
O=C(COc1ccccc1/C=C1/NC(=O)NC1=O)Nc1ccccc1 | 9.12%
CC(=O)Nc1ccc(C(=S)NCC2(N(C)C)CCCCC2)cc1 | 6.81%
NC(=O)C1CCN(CCC(=O)Nc2ccc(F)c(F)c2)CC1 | 13.8%
COc1cc(NS(=O)(=O)c2cc3c(cc2C)NC(=O)CO3)cc(OC)c1 | -44.5%
C=CCOc1ccc(CNCC2CCCO2)cc1.Cl (stereo not drawn) | 13.4%
Cn1c(N)c(S(=O)(=O)c2ccc(Br)cc2)c2nc3ccccc3nc21 | 12.1%
CC(=O)c1ccc(S(=O)(=O)Nc2cccc(S(=O)(=O)NC3=NCCC3)c2)cc1 | 11.7%
O=C(CCC(=O)Nc1ccc(F)cc1)N/N=C/c1ccc(Br)cc1 | 13.2%
COC(c1ccccc1)c1nnc(CCC(=O)N(C)CCOc2ccccc2)o1 (stereo not drawn) | 13.1%
CCN1CCCC1CN(Cc1cc2ccc(C)c(C)c2[nH]c1=O)C(=O)Nc1ccccc1OC (stereo not drawn) | -21.9%
CCOc1ccccc1N1C(=O)c2ccc(S(=O)(=O)c3ccc(C(=O)O)cc3)cc2C1=O | 11.9%
COc1ccc(/C=C/C(=O)OCC(=O)c2ccc[nH]2)cc1 | 9.57%
COc1cc(/C=C2\N=C(c3ccccc3)OC2=O)ccc1OCc1c(C)no[n+]1[O-] | 6.82%
CC(C)CCNC(=O)c1c(N)n(CC2CCCO2)c2nc3ccccc3nc12 (stereo not drawn) | 11.9%
CCC(c1nnnn1Cc1ccc2c(c1)OCO2)N1CCN(c2ccc(OC)cc2)CC1 (stereo not drawn) | -9.27%
CCCCN(C(=O)c1ccc(-c2ccc(Cl)cc2)o1)c1c(N)n(CCC)c(=O)[nH]c1=O | 0.92%
COc1cccc(/C=C(\C#N)C(=O)NC2CCS(=O)(=O)C2)c1 (stereo not drawn) | 8.07%
O=C(Oc1ccc(C(=S)N2CCOCC2)cc1Br)c1ccccc1F | 11.1%
CCN1CC2([N+](=O)[O-])CC=C(OC)C([N+](=O)[O-])(C1)C2 (stereo not drawn) | 5.46%
